Paper PMC4336329 (PLoS ONE, 2015)
About 2,200 (0.71%) of roughly 310,000 compounds showed an effect of 50% or more. Effects have a minus sign here. The list shows a part of the results.

Biological target: human ether-à-go-go-related gene (hERG) potassium channel (human, UniProt Q12809)
Test: primary screen, population patch clamp on CHO cells stably expressing hERG

Sequence of human ether-à-go-go-related gene (hERG) potassium channel (Q12809 whole entry, looked up): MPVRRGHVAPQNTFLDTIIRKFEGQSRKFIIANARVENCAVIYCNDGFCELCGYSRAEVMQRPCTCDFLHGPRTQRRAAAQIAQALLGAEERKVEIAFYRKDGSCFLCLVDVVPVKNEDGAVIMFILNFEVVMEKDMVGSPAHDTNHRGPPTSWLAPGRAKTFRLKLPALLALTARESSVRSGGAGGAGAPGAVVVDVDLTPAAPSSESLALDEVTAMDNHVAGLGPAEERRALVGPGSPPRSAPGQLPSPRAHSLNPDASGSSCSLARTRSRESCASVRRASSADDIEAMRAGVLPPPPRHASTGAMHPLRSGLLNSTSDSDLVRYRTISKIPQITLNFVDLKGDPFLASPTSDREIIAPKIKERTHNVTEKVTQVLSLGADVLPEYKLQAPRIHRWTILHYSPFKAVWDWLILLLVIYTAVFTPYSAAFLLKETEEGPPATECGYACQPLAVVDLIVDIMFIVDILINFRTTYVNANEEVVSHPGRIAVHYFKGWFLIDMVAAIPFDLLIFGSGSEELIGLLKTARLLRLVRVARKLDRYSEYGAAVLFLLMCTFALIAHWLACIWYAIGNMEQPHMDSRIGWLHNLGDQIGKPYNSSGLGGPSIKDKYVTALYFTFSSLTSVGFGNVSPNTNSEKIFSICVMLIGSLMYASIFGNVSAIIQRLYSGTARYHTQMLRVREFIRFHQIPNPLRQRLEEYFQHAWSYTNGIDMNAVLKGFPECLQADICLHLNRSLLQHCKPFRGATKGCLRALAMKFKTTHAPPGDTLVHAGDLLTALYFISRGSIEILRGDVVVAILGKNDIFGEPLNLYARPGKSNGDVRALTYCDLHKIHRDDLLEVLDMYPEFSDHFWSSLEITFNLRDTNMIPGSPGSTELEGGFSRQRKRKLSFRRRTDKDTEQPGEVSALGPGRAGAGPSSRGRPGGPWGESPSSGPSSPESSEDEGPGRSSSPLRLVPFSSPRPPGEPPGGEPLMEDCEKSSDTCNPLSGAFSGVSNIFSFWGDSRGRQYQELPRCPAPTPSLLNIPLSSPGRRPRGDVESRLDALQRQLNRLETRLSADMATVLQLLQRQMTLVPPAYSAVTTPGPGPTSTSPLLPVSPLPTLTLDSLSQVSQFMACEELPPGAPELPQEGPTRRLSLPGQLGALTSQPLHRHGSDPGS

SMILES	hERG current change (%, negative = inhibition) at 1uM [%]
CCN(CC)S(=O)(=O)c1cc(NS(=O)(=O)c2c(Cl)cccc2Cl)ccc1C	2.37
CCn1c(=O)cc(SCC(=O)NCCCN2CCN(c3ccccc3F)CC2)c2ccccc21	-17.6
Cc1cccc(OCC(O)CN2CCOCC2)c1.Cl (stereo not drawn)	11.1
Cc1cccc(OCC(=O)Nc2ccc(C(=O)c3ccc(C(=O)O)cc3)cc2)c1	4.44
CCOC(=O)c1c(C)nc2sc(C(N)=O)c(N)c2c1-c1ccc(OC)cc1	10.8
O=C1O[C@@H](c2ccc(O)cc2)Cc2cccc(O)c21	13.7
O=C(Nc1ccc(Cl)c(Cl)c1)Nc1ccccn1	11.4
Cc1ccc(N(C(=O)CNC(=O)c2ccco2)C(C(=O)NC2CCCCC2)c2cccnc2)cc1 (stereo not drawn)	3.44
COC(=O)C(Cc1cncn1COCc1ccccc1)NC(=O)OC(C)(C)C (stereo not drawn)	7.05
Cc1nn(-c2ccccc2)c2c1C1(C(=O)N(C)c3ccccc31)C(C#N)=C(N)O2 (stereo not drawn)	7.49
CCC(=O)N(c1nnc(SCC(=O)Nc2ccccc2Cl)s1)C1CC1	22.8
C=CCC(C)(NCc1ccccc1)c1ccccc1.Cl (stereo not drawn)	-0.731
CCn1c(C)cc(/C=C2\NC(=O)N(CC(=O)Nc3ccc(F)cc3)C2=O)c1C	9.23
O=C1C=C(Nc2cccc(Cl)c2)CC(c2ccco2)C1 (stereo not drawn)	6.67
CC(C)(C)c1ccc(NC(=O)C(=O)C2C(=O)Nc3ccccc32)cc1 (stereo not drawn)	1.65
CCOC(=O)N1CCN(c2c(N3CCc4ccccc4C3)c(=O)c2=O)CC1	9.24
CC(Sc1nc2c([nH]c3ccccc32)c(=O)n1C)c1ccccc1 (stereo not drawn)	12
CCNC(=S)N/N=C/c1ccccc1[N+](=O)[O-]	13.9
CCCCC(=O)NNC(=S)NCc1ccccc1	10.3
CCOC(=O)c1c(C)[nH]c(C)c1S(=O)(=O)NCc1ccccc1C	17.7
CCCCCCNC(=O)CSc1nccn1Cc1ccccc1	-6.96
O=C(C1CCN(S(=O)(=O)c2ccccc2)CC1)N1CCN(Cc2ccccc2)CC1	5.49

SMILES	hERG current change (%, negative = inhibition) at 1uM [%]
COc1ccc(CCN(Cc2nc3ccccc3c(=O)[nH]2)C(=O)c2ccco2)cc1	2.74
COc1ccc(C(=O)N2CCN(c3cccc(Cl)c3)CC2)cc1	-2.41
CN(C)C1=NCCN1CC1CCCCC1	10.9
CCOC(=O)CSc1nnc(CSc2nc(N)c3c(C)c(C)sc3n2)n1-c1ccccc1	10.2
CC(C(=O)Nc1ccccc1Oc1ccccc1)c1ccccc1 (stereo not drawn)	7.34
CCN1C(=O)[C@H]2[C@@H](c3ccc(-c4ccccc4)cc3)N3CCC[C@@]3(C(=O)OC)[C@H]2C1=O.O=C(O)C(F)(F)F	9.68
O=C(CCCN1CCC(C(=O)c2ccc(F)cc2)CC1)c1ccc(F)cc1	-86.2
Cl.c1ccc(-c2nc(NCc3ccco3)c3oc4ccccc4c3n2)cc1	15.7
Cc1cc(Cl)c(S(=O)(=O)N2CCCC2)cc1OCC(N)=O	6.85
CCCc1cc(N2CCCC(C(=O)NCc3ccc4c(c3)OCO4)C2)n2ncnc2n1 (stereo not drawn)	-34.2
O=C(COC(=O)C1CC1)Nc1ccc(Cl)cn1	9.88
Cc1ccc(CNC(=O)CSc2nnc3n2CCCCC3)cc1	1.62
O=C(NC1CCS(=O)(=O)C1)/C(=C\c1ccco1)NC(=O)c1ccccc1 (stereo not drawn)	1.49
O=C(CN1C(=O)NC2(CCCCCCC2)C1=O)Nc1ccc(Br)cc1Br	5.73
c1ccc(Cn2nnc3c(NCc4ccc5c(c4)OCO5)nc(C4CC4)nc32)cc1	14
COc1ccc(N2CCN(C(c3cccs3)C(C)NC(=O)c3ccco3)CC2)cc1 (stereo not drawn)	14.5
O=C(COC(=O)Cc1ccc(S(=O)(=O)N2CCOCC2)s1)NCc1ccc(Cl)cc1	0.696
CCc1ccc(C(=O)NC(CCSC)C(=O)O)cc1 (stereo not drawn)	16.4
COc1ccc(NC(=S)N2CCN(Cc3ccccc3)CC2)c(OC)c1	-13.6
CC(Cl)(Cl)/C(=N/P(=S)(N1CCOCC1)N1CCOCC1)N1CCOCC1	14
CCC1CN(C(=O)NCc2ccc(F)cc2)c2cc(Cl)ccc2O1 (stereo not drawn)	11.5
COc1ccccc1OCC(=O)N1CCN(c2ccccc2OC)CC1	10.1

SMILES	hERG current change (%, negative = inhibition) at 1uM [%]
COc1ccc2nc(C3CCCCC3)c3c(c2c1)CCC3	14.6
c1ccc2c(c1)CCN(c1nc(CN3CCOCC3)nc3sc4c(c13)CCCC4)C2	14.5
COc1cccc(C(=O)N2c3cc(C)ccc3OCC2C(C)(C)C)c1 (stereo not drawn)	8.29
COc1ccc(C2NC(=S)NC(C)=C2C(=O)Nc2ccccn2)cc1 (stereo not drawn)	7.8
N/C(=N\OC(=O)CCC1CCCC1)c1ccncc1	8.35
COc1ccc(OC)c(C2C(C(C)=O)=C(C)Nc3ncnn32)c1 (stereo not drawn)	9.32
CCCOc1ccc(CN(C)c2ncnc(N)n2)cc1	7.66
CC(C)c1nc(N2CCN(C(=O)c3ccco3)CC2)c(C#N)c2c1COC(C)(C)C2	-42
CCC(=O)N1CCc2cc(S(=O)(=O)NCCC(=O)N3CCN(c4cccc(OC)c4)CC3)ccc21	13.1
Cn1c(N)c(C(=O)COC(=O)CSc2cccc3cccc(Cl)c23)c(=O)n(C)c1=O	1.89
CCCC12CN3CCN(CC(C3)/C1=N\NC(=O)c1ccc(F)cc1)C2	5.76
Cc1ccc(-c2nn(-c3ccccc3)cc2/C=N/NC(=O)c2ccc3c(c2)OCO3)cc1	10.7
COc1ccc(OC)c(-n2cnc3cc(C(=O)NCCCN4CCOCC4)ccc32)c1	2.6
Cl.OCCN1CCN(CC(O)COc2ccc(Cl)cc2)CC1 (stereo not drawn)	-0.466
COc1ccccc1NC(=O)/C(=N/OCc1ccc(C#N)cc1)C(C)=O	-2.69
CC1(C)C(=O)NCCN1C(=O)CC1C(=O)NCCN1CC(c1ccccc1)c1ccccc1 (stereo not drawn)	10.2
CC(C)(C)n1ncc2c(=O)n(CC(=O)c3ccccc3)cnc21	10.2
Cc1csc(NC(=O)CN2C(=O)C3CC=CCC3C2=O)n1 (stereo not drawn)	-1.93
N#C/C(C(N)=O)=c1/ccc2c(c1)N1C3=C(CCCC3)CC3CCCCC31N=2 (stereo not drawn)	7.02
Cc1cc(C)c(OCC(=O)Nc2nc(-c3ccccn3)cs2)c(C)c1	8.27
Cc1ccc(NC(=O)N2CCN(c3ncccc3C(F)(F)F)CC2)cc1	-2.37
COc1ccc(C(=O)Nc2ccc3oc(-c4cccc(F)c4)nc3c2)cc1OC	4.3

SMILES	hERG current change (%, negative = inhibition) at 1uM [%]
CC(C)N1CC(C(=O)Nc2ccc(Br)c(Cl)c2)CC1=O (stereo not drawn)	0.379
COC(=O)c1cccc(NC(=O)CSc2nnc(C)n2C)c1	21.9
COc1ccc(NC(=O)Cn2c(=O)oc3cc(S(=O)(=O)N4CCCC4)ccc32)c(OC)c1	8.81
O=C(Nc1cccc2c1CCCC2)c1cccc(F)c1	17.4
Cc1ccc2nc(-c3ccccc3)c(CN3CCOCC3)n2c1	4.34
CCOC(=O)C1(Cc2ccc(OC)cc2)CCN(C(=O)c2ccc3[nH]ccc3c2)CC1	-3.65
CCC(=O)N1CCc2cc(S(=O)(=O)CCC(=O)Nc3cccc(C)n3)ccc21	0.361
Cc1cccc(NC(=O)C2C3CCC4C(CCC32)C4(Cl)Cl)c1 (stereo not drawn)	-3.78
COc1ccc(-c2nn(CCC#N)cc2C(=O)NCc2ccccc2)cc1OC	-11.1
CC1=CC(C)(C)n2c(O)c(N=NC(N)=S)c3cc(C)cc1c32	9.79
CC(C)(C)c1ccc(CN2C(=O)CSC2=O)cc1	14
O=S1(=O)c2cccc3cccc(c23)N1CCBr	6.6
O=C(COC(=O)C1CCN(c2ccc(C(F)(F)F)cn2)CC1)c1ccc(F)cc1	19.7
O=C(CCN1C(=O)COc2ccccc21)NCCCN1CCc2ccccc2C1	-1.81
CC1CCN(c2ccc3c(c2)S(=O)(=O)c2cccc(C(=O)NC4CCCCC4)c2C3=O)CC1	15.7
CCOc1ccc(CCNC(=O)COC(=O)c2nc3nc(C)cc(C)n3n2)cc1OCC	-2.82
COc1ccc(C(C(=O)NC2CCCCC2)N(C(=O)CCCC(=O)Nc2ccccn2)c2ccc3c(c2)OCCO3)cc1 (stereo not drawn)	5.56
O=C(/C=C/c1ccc(OC(F)F)cc1)OCC(=O)N1CCN(C(=O)c2ccco2)CC1	-37.4
COc1ccc(Cl)cc1C(=O)NNC(=O)c1ccncc1	12.3
COC(=O)c1sccc1NC(=O)Nc1ccc(C)c(C)c1	12.3
COc1ccc(-n2ccc(-c3nn(-c4cccc(C(F)(F)F)c4)ccc3=O)n2)cc1	-8.13
